# Source: PubChem BioAssay AID624417 (National Center for Advancing Translational Sciences (NCATS), 2012)
# The campaign covered roughly 410,000 compounds. About 6,400 (1.6%) were called active. Inconclusive means that the source gave no clear call. Such entries were picked first, then a sample of the others. Calls come from the whole dose curve; as a rule, active = well fitted inhibition curve with a large enough effect; inconclusive = small, poorly fitted or top-dose-only effect; inactive = no such curve, though single readings can be large or run the other way. Potencies of inconclusive entries are left out as doubtful fits.
# Target: Glucagon-like peptide 1 receptor (Homo sapiens) (UniProt P43220)
# Assay: qHTS of GLP-1 Receptor Inverse Agonists (Inhibition Mode); note: nearly all actives have a fitted effect of over 55% in size
# Conditions: HEK293 GLP-1R CRE-luciferase, luminescence, 24 h, GLP-1R form is constitutively active; activity change, negative = inhibition: at 38.3 µM (top of the series) unless noted
# Procedure, shortened: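 GLP-1R inverse agonism mode: basal reporter luminescence in engineered HEK293 cells measured after one day of compound exposure at 37 deg C, with a 12 min room-temperature detection step.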
# % is set by controls: 0 for no effect and ±100 for the full control effect; potency is the fitted concentration of half-maximal effect; tags give direction and shape of the fitted curve.
# Chain of UniProt P43220 (P43220 whole entry, looked up): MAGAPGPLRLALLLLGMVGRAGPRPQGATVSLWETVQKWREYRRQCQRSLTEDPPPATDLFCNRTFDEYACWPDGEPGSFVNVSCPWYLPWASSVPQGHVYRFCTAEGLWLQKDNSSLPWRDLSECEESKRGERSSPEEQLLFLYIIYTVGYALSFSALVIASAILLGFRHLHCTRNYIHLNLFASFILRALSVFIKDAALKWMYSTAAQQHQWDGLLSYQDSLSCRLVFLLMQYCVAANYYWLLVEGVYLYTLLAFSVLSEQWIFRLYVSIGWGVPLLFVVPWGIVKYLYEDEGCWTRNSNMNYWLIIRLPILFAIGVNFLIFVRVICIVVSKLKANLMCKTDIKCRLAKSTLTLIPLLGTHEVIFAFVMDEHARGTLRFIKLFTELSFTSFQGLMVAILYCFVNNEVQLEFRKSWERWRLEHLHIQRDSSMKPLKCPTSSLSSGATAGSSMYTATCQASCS
SMILES,Potency,"activity change, negative = inhibition"
COc1ccc(NC(=O)C2C3C=CC4(O3)C2C(=O)N(CCN2CCCCC2C)C4C(=O)NC2CCCC(C)C2C)cc1 (stereo not drawn),"inconclusive [inhibitor, full curve, poor fit]",
O=C(CCc1nc(-c2ccccc2)no1)Nc1cc(C(F)(F)F)ccc1Cl,"inconclusive [inhibitor, partial curve, poor fit]",
COc1cccc(NC(=O)Cc2csc(COc3cccc(C)c3)n2)c1,"inconclusive [inhibitor, single point]",
COc1ccc(/C=N/NC(=O)CN2CCCCCCC2)c(C)c1C,"inconclusive [inhibitor, single point]",
O=C(Nc1ccc2ccccc2c1)C(c1ccccc1)C1CCCC1 (stereo not drawn),active: 5.01 µM,
Cc1ccc(-n2nnc(-c3cccnc3Cl)n2)cc1,,inactive: 7.94%
OCCN1CCN(c2cc(-c3ccc4ccccc4c3)nc3ccnn23)CC1,"inconclusive [inhibitor, single point]",
CC1(C(=O)NS(=O)(=O)Cc2cccc(Cl)c2)CCN1C(=O)C1(c2ccc(Cl)cc2)CC1 (stereo not drawn),"inconclusive [inhibitor, partial curve]",
CCOC(=O)Nc1ccc2c(c1)N(C(=O)N(CC)CC)c1ccccc1CC2,"inconclusive [inhibitor, single point]",
CCCCCCCCN1C(=O)[C@H](CC(=O)NCc2cccc(C(F)(F)F)c2)C[C@@]2(C(=O)OCC)CCC=C12,"inconclusive [inhibitor, partial curve, poor fit]",
C[C@@H](NC(=O)c1nc[nH]c1C(=O)NCc1ccccc1)c1ccccc1,"inconclusive [inhibitor, single point]",
CC1CCN(S(=O)(=O)c2ccc(NC(=O)c3ccco3)cc2)CC1,"inconclusive [inhibitor, partial curve, poor fit]",
Cc1ccnc(NC(c2ccsc2)c2ccc3ccc(C)nc3c2O)c1 (stereo not drawn),"inconclusive [inhibitor, partial curve, poor fit]",
COc1ccc(CC2=CC(=O)c3ccccc3C2=O)cc1,"inconclusive [inhibitor, single point]",
COc1ccc(Br)c(C(=O)OCC(=O)NC(=O)NC2CCCC2)c1,"inconclusive [inhibitor, partial curve, poor fit]",
C(=N\NCc1ccccc1)/c1ccc2ncccc2c1,"inconclusive [inhibitor, single point]",
COc1ccc(CN2CCN(c3ccccn3)CC2)c(OC)c1C,"inconclusive [inhibitor, single point]",
Cc1cc2c(c(C)c1Br)C(c1ccc3c(c1)OCO3)CC(=O)O2 (stereo not drawn),"inconclusive [inhibitor, single point]",
Cc1csc(NC(=O)c2cncc(Br)c2)n1,"inconclusive [inhibitor, single point]",
COc1ccc(CNCc2cccc(Oc3ccccc3)c2)cc1,"inconclusive [inhibitor, partial curve, poor fit]",
S=C1NC2(CCCCC2)N=C1c1ccccc1,"inconclusive [inhibitor, partial curve]",

SMILES,Potency,"activity change, negative = inhibition"
COc1ccc(NC(=O)c2c(C)oc3ccc(O)c(CN4CCCCCC4)c23)cc1,"inconclusive [inhibitor, single point]",
Nc1nc[nH]c(=O)c1N=Cc1ccccc1,,inactive: -4.17%
CN1CCCN(C2C3CC4CC(C3)CC2C4)CC1 (stereo not drawn),"inconclusive [inhibitor, full curve]",
COc1cccc(CNC(=O)CN2C(=O)CCSc3ccc(S(=O)(=O)N4CCCC4)cc32)c1,"inconclusive [inhibitor, partial curve]",
Cc1ccc(-c2ccc(CCC(=O)O)n2-c2cccc(C)c2C)cc1,"inconclusive [inhibitor, single point]",
CCOc1ccc(OCC)c(NC(=O)CN(c2ccc(OC)cc2)S(=O)(=O)c2c(C)noc2C)c1,"inconclusive [inhibitor, partial curve, poor fit]",
CC(C)(C)SCCNC(=O)CN(c1ccc(F)cc1)S(=O)(=O)c1ccccc1,"inconclusive [inhibitor, partial curve]",
CCN(CC)c1ccc(C2C(C(=O)OCCOC(C)C)=C(C)NC3=C2C(=O)CCC3)cc1 (stereo not drawn),"inconclusive [inhibitor, single point]",
N/C(=N\OC(=O)CCCOc1ccccc1)c1ccc(Br)cc1,"inconclusive [inhibitor, partial curve, poor fit]",
Cc1ccc(C(=O)N2CCCN(c3nc4cc5c(cc4cc3C#N)OCO5)CC2)cc1,"inconclusive [inhibitor, full curve, poor fit]",
O=C(NCCc1csc(-c2ccc(F)cc2)n1)c1cccc(F)c1,"inconclusive [inhibitor, single point]",
Cc1ccc(C2c3[nH]c4ccccc4c3CCN2C(=O)CSCc2ccc(F)cc2)cc1 (stereo not drawn),"inconclusive [inhibitor, partial curve, poor fit]",
COc1ccc(/C=N\NC(=O)c2ccccc2Br)cc1COc1ccccc1,"inconclusive [inhibitor, single point]",
O=S(=O)(Nc1ccc(Br)cc1)c1cccc(NC(=S)NCCN2CCOCC2)c1,"inconclusive [inhibitor, partial curve]",
CC1CCCN(CCCNC(=O)c2cc3c(Cl)nc4ccccc4c3s2)C1 (stereo not drawn),"inconclusive [inhibitor, single point]",
COc1ccc(-c2nc(NCCCN(C)C)c3ccccc3n2)cc1,"inconclusive [inhibitor, single point]",
CCc1cccc(CC)c1NC(=S)NCCc1c(C)[nH]c2ccc(C)cc12,active: 7.94 µM,
Cc1cc(/C=N/n2cnnc2)c(C)n1-c1ccc(OCc2ccccc2F)cc1,"inconclusive [inhibitor, partial curve, poor fit]",
N/N=C(\c1ccccc1)c1cc(Cl)ccc1N,"inconclusive [inhibitor, partial curve, poor fit]",
C/C(=N\NC(=O)c1cccc(S(=O)(=O)Nc2ccccc2Cl)c1)c1ccc(-n2ccnc2)cc1,,inactive: 18%
CSc1nc2cc(Oc3cccc(Cl)c3Cl)c(Cl)cc2[nH]1,active: 11.2 µM,

SMILES,Potency,"activity change, negative = inhibition"
NCCNC[C@@H]1COC2(CCCCCCCCCCC2)O1,active: 5.01 µM,
Cc1ccc(S(=O)(=O)N2CCCCC2)cc1NC(=O)COc1ccccc1,"inconclusive [inhibitor, partial curve, poor fit]",
CC1=C(C(=O)N(C(C)C)C(C)C)CC(CC(=O)NCCc2ccccn2)C(=O)N1Cc1ccc(C(C)(C)C)cc1 (stereo not drawn),,inactive: -13.2%
COc1ccc(N2CCN(C(=O)c3ccc(CS(=O)c4cccc(Cl)c4)o3)CC2)cc1 (stereo not drawn),"inconclusive [inhibitor, full curve]",
Cc1ccc(C(=O)CSc2nnc(-c3ccco3)n2Cc2ccccc2)cc1,"inconclusive [inhibitor, partial curve, poor fit]",
O=C(CN1C(=O)C2CC=CCC2C1=O)Nc1nnc(SCc2c(Cl)cccc2Cl)s1 (stereo not drawn),"inconclusive [inhibitor, single point]",
O=C(NCc1cccs1)c1ccc(CSc2nc3ccncc3n2Cc2ccccc2F)cc1,"inconclusive [inhibitor, single point]",
COC(=O)c1cn(NC(=O)c2cc([N+](=O)[O-])ccc2F)c(=O)c2ccccc12,active: 1.58 µM,
Clc1ccc(C=Cc2ccccn2)c(Cl)c1,"inconclusive [inhibitor, single point]",
CCN(CC)c1nn2c(=O)c(C(=O)NCc3ccc(N(C)C)cc3)cnc2s1,,inactive: -9.32%
COc1ccccc1OCc1cc(C(=O)N2CCN(C)C(c3ccccc3)C2)no1 (stereo not drawn),"inconclusive [inhibitor, partial curve, poor fit]",
O=C(NCC1CC1)c1cc2c(c(-c3cccc(-c4ccccc4F)c3)n1)[C@H](CCO)N(C(=O)CC1CC1)C2,"inconclusive [inhibitor, partial curve, poor fit]",
COc1ccc(S(=O)(=O)Nc2ccccc2C)cc1,"inconclusive [inhibitor, single point]",
Cc1cccc(C)c1NC(=S)N(CCN(C)C)Cc1cccs1,"inconclusive [inhibitor, single point]",
CCCc1ccc(S(=O)(=O)N2CCN(Cc3ccco3)CC2)cc1,"inconclusive [inhibitor, single point]",
O=S(=O)(NCC1CCCO1)c1ccc(-c2ccc(S(=O)(=O)NCC3CCCO3)cc2)cc1 (stereo not drawn),,inactive: -1.77%
O=C1/C(=C\c2cc(Br)cc(Br)c2O)SC(=S)N1Cc1ccccc1,,inconclusive: -40.2% [inhibitor]
Cc1ccc(/C=N/NC(=O)Cc2c(F)cccc2Cl)s1,"inconclusive [inhibitor, single point]",
CC(C(=O)NCc1ccccc1)n1c(-c2ccc3c(c2)CCO3)nc2ccccc21 (stereo not drawn),,inactive: -7.27%
CCOC(=O)c1ccccc1NC(=O)c1cnc(N2CCOCC2)c2ccccc12,,inactive: 0.349%
Cc1cccc(NC(=O)[C@H](Cc2c[nH]c3ccccc23)NC(=O)[C@@H]2Cc3ccccc3CN2)c1,"inconclusive [inhibitor, full curve, poor fit]",
